Values joined by “and” are separate entries in the source; they are usually repeats but may differ in a detail not shown here. Equal values may be shown once. In all, about 420,000 compounds went through this assay and about 50,000 (12%) were called active. The inconclusive results got no clear call from the source; some entries with a clear call stand among them for comparison. Calls follow the shape of the dose curve; as a rule, active = well fitted inhibition curve with a large enough effect; inconclusive = small, poorly fitted or top-dose-only effect; inactive = flat fitted curve, though single readings scatter. Where the call is inconclusive, the potency comes from a doubtful curve fit.
Experiment: qHTS for Inhibitors of human tyrosyl-DNA phosphodiesterase 1 (TDP1): qHTS in cells in presence of CPT; also: nearly all actives have a fitted effect of over 55% in size
Settings: chicken DT40 Tdp1-/-;hTDP1 cells + 20 nM CPT, ATP luminescence, 48 h; activity change, negative = growth inhibition: at 46.2 µM (top of the series) unless noted
How it was run: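 Chicken DT40 Tdp1-/- cells stably complemented with human TDP1 were seeded at 400 cells/well in medium containing 20 nM camptothecin, exposed to pin-transferred compounds, and grown at 37 °C for at least 48 hr. Viability was read as ATP luminescence.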
% is scaled to controls: 0 for no effect and ±100 for the full control effect; potency is read from the fitted curve at half-maximal effect; tags tell the direction and shape of the fitted curve.

SMILES	Potency	activity change, negative = growth inhibition
COC(=O)c1ccc(-n2c(/C=C\c3cccc(Br)c3)nc3ccccc3c2=O)cc1	active: 5.17 µM	–
COc1cccc(NC(=O)C(=O)NCCC2CCCCN2S(=O)(=O)c2cccs2)c1 (configuration not stated)	inconclusive: 29.1 µM [inhibitor, single point]	–
Cc1cc(NC(=O)CSc2nc3c(C)cccc3cc2C#N)no1	inconclusive: 29.1 µM [inhibitor, single point]	–
O=c1cc(NC2CCCCC2)c2ccccc2o1	inconclusive: 13 µM [inhibitor, partial curve]	–
C=CCSCC(N)C(=O)O (configuration not stated)	inactive	–
Cc1ccc(S(=O)(=O)C(CNC(=O)C(=O)NCCc2ccccc2)c2ccco2)cc1 (configuration not stated)	inconclusive: 29.1 µM [inhibitor, single point]	–
Cc1ccc(C(=O)Nc2nnc(-c3ccco3)o2)cc1C	active: 23.1 µM	–
CC(Nc1nc(N2CCCC2)nc2ccccc12)c1ccccc1 (configuration not stated)	active: 23.1 µM	–
CCOC(=O)c1c(CN2CCCCC2)n(C)c2ccc(OC)c(S(=O)(=O)c3ccccc3)c12	inactive	–
CC1(NC(=O)CC(c2ccccc2)(c2ccccc2)c2ccccc2)CCN(CCCc2ccccc2)C1=O (configuration not stated)	active: 23.1 µM	–
COc1cc2cc(C(c3nnnn3C3CCCC3)N(C)C3CCCCC3)c(=O)[nH]c2cc1OC (configuration not stated)	active: 15.8 µM	–
CC1(C)OC(C)(C)/C(=C/Nc2ccc(O)cc2)C1=O	inconclusive: 29.1 µM [inhibitor, single point]	–
O=C(CCN1CCN(c2ccccc2)CC1)N/N=C/c1ccccc1O	inconclusive: 23.1 µM [inhibitor, single point]	–
Cc1ccc(OCc2nc(-c3ccc(C(=O)N4CCN(c5ccc(Cl)cc5)CC4)cc3)oc2C)cc1	inconclusive: 29.1 µM [inhibitor, single point]	–
CCc1nc(SCC(=O)NC2CCCC2)c2oc3ccccc3c2n1	inconclusive: 20.6 µM [inhibitor, single point]	–
CCCCC[n+]1ccn(C2=C([O-])c3ccccc3C(=O)/C2=N\S(=O)(=O)c2ccc(Br)cc2)c1	active: 10.3 µM	–
Cn1c(CCC(=O)OCC(=O)NCc2ccc3c(c2)OCO3)nc(=O)c2ccccc21	inactive	–
O=C(COc1ccc(Br)cc1Cl)NC(=O)Nc1ccc2c(c1)OCCO2	inactive	–
COc1cccc(CN(C)CC(O)COC(c2ccccc2)c2ccccc2C)c1 (configuration not stated)	active: 20.6 µM	–
O=C(CCCSc1nc2ccccc2c(=O)[nH]1)c1ccccc1	inconclusive: 29.1 µM [inhibitor, single point]	–
CC(C)(C)c1nnc2sc(SCC(=O)c3cccs3)nn2c1=O	inconclusive: 29.1 µM [inhibitor, single point]	–
O=C(/C=C\c1ccco1)Nc1nc(-c2ccc3ccccc3c2)cs1	inconclusive: 18.4 µM [inhibitor, single point]	–
CC(C)CCNC(=O)CSc1c2c(nc3ccc(Cl)cc13)CCCC2	inconclusive: 29.1 µM [inhibitor, single point]	–

SMILES	Potency	activity change, negative = growth inhibition
COc1ccc(C2(c3ccc(OC)cc3)NC(=O)N(CC(=O)Nc3cc(C)on3)C2=O)cc1	inconclusive: 29.1 µM [inhibitor, single point]	–
COc1ccccc1N1CCN(/N=C/c2c(C)nn(-c3ccccc3)c2C)CC1	inconclusive: 29.1 µM [inhibitor, partial curve]	–
Cc1ccc(C(=O)CSc2nnc(COc3cc(C)cc(C)c3)o2)cc1	inconclusive: 29.1 µM [inhibitor, single point]	–
CC(C)Oc1ccc(CNC(=O)Cn2c(=O)oc3ccccc32)cc1	inconclusive: 29.1 µM [inhibitor, single point] and inconclusive: 23.1 µM [inhibitor, partial curve, poor fit]	–
O=S1(=O)CC(c2ccccc2)=NN=C(c2ccccc2)C1	inconclusive: 9.2 µM [inhibitor, partial curve]	–
CCN(CCCN(C)C)c1ccc(/C=C/c2ccnc3ccccc23)cc1	inconclusive: 22.4 µM [inhibitor, single point]	–
CC(=O)N1c2c(cc(Br)cc2S(=O)(=O)NCc2cccnc2)CC1C (configuration not stated)	inactive	–
Cc1ccn2c(=O)nc(SCC(=O)N3N=C(c4cccs4)CC3c3ccc(F)cc3)nc2c1 (configuration not stated)	inconclusive: 29.1 µM [inhibitor, single point]	–
O=c1[nH]c(Nc2nc3ccccc3o2)nc2c1CCCC2	active: 2.91 µM	–
COc1ccc2c(c1)CCc1cnc(-n3ncc(C(=O)NCCCc4ccncc4)c3C)nc1-2	–	inactive: -2.27% [at 9.04 µM]
COc1ccc(CNc2ccnc(-c3ccc4c(c3)OCO4)n2)c(OC)c1	inconclusive: 18.4 µM [inhibitor, single point]	–
Cc1cc(C(=O)NCc2ccccc2C)c2c(C)nn(-c3cccc(F)c3)c2n1	inconclusive: 18.4 µM [inhibitor, single point]	–
CCOC(=O)C1=C(CN2CCN(CC)CC2)NC(=O)NC1c1ccc(Cl)cc1 (configuration not stated)	inconclusive: 20.6 µM [inhibitor, partial curve]	–
CC(=O)Nc1ccccc1-c1nc2ccc(C(=O)N3CCN(c4cccc(C)c4)C(C)C3)cc2[nH]c1=O (configuration not stated)	inconclusive: 16.4 µM [inhibitor, single point]	–
CCCn1c(=O)sc2cc(NC(=O)c3ccccc3OCC)ccc21	inconclusive: 16.4 µM [inhibitor, partial curve, poor fit]	–
CCCC(=O)N(Cc1cc(=O)[nH]c2ccccc12)c1ccc(C)cc1	inconclusive: 29.1 µM [inhibitor, single point]	–
O=C(O)c1nn2c(c1Br)NC(c1ccccc1)CC2C(F)(F)F (configuration not stated)	inactive	–
CSc1ccc(/C=C/C(=O)OCC(=O)NC(C)C)cc1	inconclusive: 25.9 µM [inhibitor, single point]	–
COC(=O)c1c(-c2ccccc2)csc1NC1=NS(=O)(=O)c2ccccc21	inconclusive: 18.4 µM [inhibitor, single point]	–
NC(=O)CC(NC(=O)c1ccc(Br)cc1)c1ccc(NC2CCCCCCC2)c([N+](=O)[O-])c1 (configuration not stated)	active: 16.4 µM	–
COC(=O)[C@@H]1N2C(=O)[C@@H](NC(=O)C(C)Oc3ccccc3)[C@H]2SC1(C)C (some centres not stated)	inconclusive: 35.5 µM [inhibitor, single point]	–
COc1ccc(CC(=O)Nc2ccc(C)c(S(=O)(=O)N3CCCCCC3)c2)cc1	inconclusive: 20.6 µM [inhibitor, partial curve]	–
O=[N+]([O-])c1cncc([N+](=O)[O-])c1Nc1cccc(O)c1	active: 5.17 µM	–

SMILES	Potency	activity change, negative = growth inhibition
Cc1cccc2sc(N(CCN(C)C)C(=O)C3CCN(S(=O)(=O)c4cccs4)CC3)nc12	inconclusive: 16.4 µM [inhibitor, partial curve]	–
COc1cc(Cl)ccc1OC1(C)CCN(Cc2ccc(SC)cc2)C1 (configuration not stated)	active: 13 µM	–
Cc1ccc(C(=O)N2CCN(c3ccc(NC(=O)c4cc(C)cc(C)c4)cc3)CC2)cc1	inconclusive: 20.6 µM [inhibitor, partial curve]	–
COCCCN=C1NN=C(c2cc(C)n(-c3ccccc3F)c2C)CS1	active: 16.4 µM	–
CCCCCCn1c(CNC(=O)c2ccccc2)nc2ccccc21	inconclusive: 20.6 µM [inhibitor, single point]	–
NC(COCc1ccccc1)c1csc(Nc2cc(NCCCO)ncn2)n1 (configuration not stated)	inconclusive: 13 µM [inhibitor, partial curve]	–
CC(C)N(C(=O)[C@H]1C[C@H](CC(=O)NCCC2=CCCCC2)C(=O)N2CCc3c([nH]c4cc(-c5ccco5)ccc34)[C@]12C)C(C)C	inconclusive: 29.1 µM [inhibitor, single point]	–
CCCS(=O)(=O)N1CCN(Cc2ccc(OCc3ccccc3)c(OC)c2)CC1	inconclusive: 29.1 µM [inhibitor, single point]	–
O=C(CC1N=C2c3ccccc3N=C(SCc3ccc(F)cc3)N2C1=O)NCc1cccs1 (configuration not stated)	inconclusive: 18.4 µM [inhibitor, single point]	–
Cc1ccc(S(=O)(=O)Nc2ccc3c(c2)CCC3)cc1	active: 14.6 µM	–
CC(=O)Nc1ccccc1-c1nc2cc(C#N)c(C#N)cc2[nH]c1=O	active: 20.6 µM	–
Cc1cc2c(NC(=O)CCCC(=O)O)cccc2nn1	inactive	–
O=C(NCCN1CCCCCC1)c1ccc(CS(=O)(=O)c2ccc(Br)cc2)o1	inconclusive: 29.1 µM [inhibitor, single point]	–
COc1ccc(C(=O)CSc2nnc(Cc3ccccc3)o2)cc1	inactive	–
C=CCn1c(=S)[nH]c2scc(-c3ccc(C)o3)c2c1=O	inconclusive: 23.1 µM [inhibitor, single point]	–
O=C(O)c1ccccc1C(=O)NCCc1c(C(=O)O)[nH]c2ccc(Cl)cc12	inactive	–
CCc1ccc(NC(=O)Cn2ncc3c4ccccc4n(C)c3c2=O)cc1	inactive and inconclusive: 32.6 µM [inhibitor, single point]	–
CCCCn1c(SCC(=O)Nc2ccc3c(c2)CCC3)nc2ccccc2c1=O	inconclusive: 18.4 µM [inhibitor, single point]	–
CCOC(=O)CCSc1nc(C)c2cc(C)c(C)cc2n1	inconclusive: 29.1 µM [inhibitor, single point]	–
COc1ccc(C=O)cc1COc1c(F)c(F)cc(F)c1F	inconclusive: 18.4 µM [inhibitor, single point]	–
COC(=O)c1nnn(-c2nonc2N)c1CSc1nc2ccccc2s1	inconclusive: 14.6 µM [inhibitor, partial curve, poor fit]	–

— PubChem BioAssay AID686979 (National Center for Advancing Translational Sciences (NCATS), 2013)
